According to paper PMC6919601, “Identification of Plasmodium dipeptidyl aminopeptidase allosteric inhibitors by high throughput screening” (PLoS ONE, 2019):
Screen size: about 110,000 compounds; about 230 (0.21%) showed an effect of 50% or more. Some of the results follow.

Target: DPAP1 (Plasmodium falciparum, UniProt Q8IIJ9)
Test: primary screen, percent inhibition; read by cleavage of a fluorogenic dipeptide substrate; higher = more effect of the substance
Parameters: species or system P. falciparum D10 trophozoite lysates; single well
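Further: 30 min substrate incubation versus DMSO and 10 µM JCP410 controls.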

Sequence of DPAP1 (Q8IIJ9 whole entry, looked up): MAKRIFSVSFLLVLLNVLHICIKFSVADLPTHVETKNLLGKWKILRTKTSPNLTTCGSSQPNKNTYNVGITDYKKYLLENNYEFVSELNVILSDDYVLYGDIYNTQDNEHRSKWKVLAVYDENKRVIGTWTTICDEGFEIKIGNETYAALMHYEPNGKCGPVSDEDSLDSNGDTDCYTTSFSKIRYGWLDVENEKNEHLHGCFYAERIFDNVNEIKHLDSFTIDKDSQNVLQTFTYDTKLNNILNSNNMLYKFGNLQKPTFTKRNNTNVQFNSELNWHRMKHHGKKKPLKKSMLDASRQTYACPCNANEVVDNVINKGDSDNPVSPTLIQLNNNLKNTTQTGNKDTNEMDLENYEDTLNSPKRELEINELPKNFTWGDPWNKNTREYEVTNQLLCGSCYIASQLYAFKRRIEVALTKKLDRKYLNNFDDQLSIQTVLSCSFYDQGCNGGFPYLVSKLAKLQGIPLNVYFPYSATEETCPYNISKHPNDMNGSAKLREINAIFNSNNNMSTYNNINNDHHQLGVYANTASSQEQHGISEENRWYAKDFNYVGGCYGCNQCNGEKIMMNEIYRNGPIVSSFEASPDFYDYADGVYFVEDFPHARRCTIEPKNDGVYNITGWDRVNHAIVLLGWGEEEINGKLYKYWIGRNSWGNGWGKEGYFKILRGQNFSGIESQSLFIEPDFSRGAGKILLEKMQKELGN

Point of comparison: `Cc1ccc2nc(C)c(CN(C)C3CCCCC3)c(O)c2c1`, “% Inhibition @ 10 uM” value 2.39%. Against it:
- CCOC(=O)c1c(NC(=O)c2cc(=O)c3cc(C)ccc3o2)sc(C)c1C — lower, 0.248%
- CCC(C)NC(=O)Cn1ncc2c(C)n(Cc3ccccc3F)c(C)c2c1=O (stereo not shown) — lower, -2.17%
- Cc1onc(-c2ccccc2Cl)c1C(=O)Nc1nnc(Cc2ccc(Cl)cc2)s1 — lower, -6.69%
- CN1CCC(N(C)Cc2ccccc2C(F)(F)F)CC1 — lower, -0.197%
- Cc1cccc(CN2CCC(CNC(=O)Cn3ncc4c5ccccc5nc-4c3O)CC2)c1 — lower, 1.9%
- CC(=O)Nc1ccc(CN2CCN(c3ccccc3F)CC2)cc1 — lower, -1.07%
- Cc1ccc(S(=O)(=O)Nc2ccccc2C2=N[C@@H](C(C)C)CO2)cc1 — lower, -3.25%
- O=C(Nc1ccccc1)c1ccncc1 — lower, -1.45%
- CC1=C(C(=O)OCc2ccccc2)C(c2ccc(N(C)C)cc2)NC(S)=N1 (stereo not shown) — lower, -4.21%
- C=CCNC(=O)c1cc(-c2cc(OC)ccc2OC)on1 — lower, 0.0221%
- O=C(CCc1ccccc1)NCc1nc(-c2ccccc2)no1 — lower, 0.486%
- COc1cc(OC)cc(C(=O)N2CCN(C3CCN(Cc4ccccc4)CC3)CC2)c1 — higher, 8.09%
- CC(NC(=O)c1ccco1)c1cc2c(cc1Br)OCCCO2 (stereo not shown) — higher, 5.39%
- COCCn1c(SCC(=O)NCC2CCCO2)nc2c(c1=O)SCC2 (stereo not shown) — lower, -4.16%
- CCOC(=O)c1cc(C(C)=O)n2ccccc12 — lower, -3.85%
- Nc1ccc(-c2nc3cc(-c4nc5cc(N)ccc5[nH]4)ccc3[nH]2)cc1 — lower, 1.64%
- CC1CCN(S(=O)(=O)N2CCCC(C(=O)N3CCN(c4ncccn4)CC3)C2)CC1 (stereo not shown) — lower, 1.25%
- CCOC(=O)N1CCN(C(=O)C2CCCN(c3ncnc4c3nc3n4CCCCC3)C2)CC1 (stereo not shown) — higher, 8.12%
- Cn1c(=O)c2c(nc(CN3CCCCC3)n2CCCO)n(C)c1=O — lower, -3.46%
- COc1ccc2c(Sc3ccccc3)c(C(=O)N3CCCCC3)[nH]c2c1 — lower, -2.61%
- COc1ccc(C(=O)Nc2sc(C)c(C)c2C(N)=O)cc1OC — lower, 0.431%
- CCOc1c(Br)cc(/C=C2\SC(=O)N(C)C2=O)cc1OC — higher, 5.37%
- Cn1c2c(s/c1=N\C(=O)c1cccnc1)CCc1ccccc1-2 — lower, 1.86%
- COc1ccc(/C=C/c2nc(C#N)c(NCc3cccnc3)o2)cc1OC — higher, 5.68%
- Cc1ccc(-c2csc(/C(C#N)=C\c3ccc(F)cc3)n2)cc1 — lower, -4.4%
- Cc1ccc(/C=c2\sc3nnc(-c4ccccc4C)n3c2=O)cc1 — lower, 1.62%
- FC(F)(F)c1cc(NCc2ccccc2)nc(-c2ccccc2)n1 — higher, 5.09%
- O=[N+]([O-])c1ccc(-c2nc(-c3ccccc3)no2)c(Cl)c1 — higher, 3.32%
- O=C1CCN(C(=O)c2ccccc2)[C@@H]2CCCC[C@H]12 — lower, 1.4%
- O=C1NC(=S)N(c2ccc(Cl)cc2)C(=O)/C1=C/c1ccc2c(c1)OCO2 — higher, 4.88%
- COc1ccccc1/C=C/C1=CCN(C)CC1 — higher, 2.58%
- CC(C)(C)C1CCc2c(sc(NC(=O)COc3ccc(F)cc3)c2C(N)=O)C1 (stereo not shown) — higher, 6.65%
- CCc1ccccc1NC(=O)Cn1cnc2ccccc2c1=O — lower, -4.62%
- CCC(Cc1ccccc1)/N=c1/c(-c2ccccc2)c(O)c1=O (stereo not shown) — lower, -2.28%
- c1ccc2c(c1)nnn2Cc1nnc2sc(-c3ccc4c(c3)OCCO4)nn12 — higher, 19%
- COC(=O)NCc1ccc(CNC(=O)OC)cc1 — lower, -2.9%
- Cn1c(=O)[nH]c(=O)c2c1nc(N1CCCCC1)n2CC(O)COc1cccc2ccccc12 (stereo not shown) — lower, -10.9%
- COc1cc(NC(=O)c2ccnn2C)c(OC)cc1Cl — lower, -10.8%
- CCCC[C@H](NC(=O)[C@@H](NC(=O)OCc1ccccc1)[C@@H](C)CC)C(=O)CO — lower, 2.22%
- CCn1c2ccccc2c2cc(CN3CCCN(C)CC3)ccc21 — lower, 1.48%
- COc1ccc(-c2cn3c(n2)sc2cc(C(=O)N4CCC5(CC4)OCCO5)ccc23)cc1 — higher, 32.8%
- Cc1cc(Cl)ccc1OC(C)C(=O)NCC1CCCO1 (stereo not shown) — lower, -1.06%
- COc1ccc(CN2CCCC(C(=O)N3CCCCCC3)C2)cc1 (stereo not shown) — lower, -2.98%
- CCOc1ccccc1C(=O)Nc1ccc(Cl)cc1F — higher, 6.69%
- CC(=O)Nc1ccc(NC(=O)CN(C)S(=O)(=O)c2cc(Cl)ccc2Cl)cc1 — lower, -11.5%
- COC(=O)c1cccnc1-c1ncccc1C(=O)OC — lower, -3.92%
- COC(=O)C1=CN(C2CC2)C=C(C(=O)OC)C1c1cc(Br)c(OC)c(OC)c1 — lower, -5.17%
- COc1ccc(C2=NN(Cc3c(F)cccc3Cl)C(=O)CC2)cc1 — lower, 2.35%
- CNc1ncc(Br)nc1Br — lower, -2.83%
- COc1ccc2c(c1OC)C(=O)N(C(C)C(=O)O)C2=O (stereo not shown) — lower, -3.19%
- COc1cc(NC(=O)c2cc3ccccc3o2)ccc1NC(=O)c1ccco1 — lower, -7.76%
- Cc1ccc(C(=O)Nc2ccc(C)cc2Br)cc1 — higher, 4.6%
- O=C(Cc1ccc(F)cc1F)Nc1ccc(Cl)cc1 — lower, -2.54%
- CC(C)Cn1c(CCCNC(=O)c2ccccc2)nc2ccccc21 — higher, 4.77%
- CCOC(=O)C1CCCCN1C1CCCC(C)C1 (stereo not shown) — lower, -3.6%
- Cc1ccc(Cn2c(=O)c3ccccc3n3c(CCC(=O)N4CCC(C)CC4)nnc23)cc1 — lower, -2.42%
- COc1ccccc1Oc1ccc(S(=O)(=O)Nc2ccncc2)cc1 — lower, -6.74%
- O=[N+]([O-])c1cccc(CN2CCC(O)CC2)c1 — lower, -3.95%
- CN(C)CCNC(=O)CCn1nc(-c2ccc(Cl)cc2)ccc1=O — lower, 1.62%
- CCCCCC(=O)Nc1ncc2c(n1)CC(c1cccc(Cl)c1)CC2=O (stereo not shown) — higher, 3.43%
- COCCNC(=O)CSc1[nH]c(-c2ccc(OC)c(OC)c2)nc1-c1ccc(C)cc1 — lower, 0.163%
- CCC(C)[C@H](NC(=O)c1cccc(CNC(=O)OC(C)(C)C)c1)C(=O)N[C@@H](CCc1ccccc1)C(=O)CNS(=O)(=O)c1ccc2oc3ccccc3c2c1 (stereo partly shown) — higher, 3.66%
- COc1ccc(OC)c(NC(=O)c2sc3nc4c(cc3c2N)CCCCC4)c1 — higher, 2.84%
- CC(C)(Oc1cccc2c1sc1ccccc12)C(=O)O — higher, 3.69%
- COc1ccc(/N=C2/S/C(=C\c3ccc(O)c(OC)c3)C(=O)N2C)cc1 — higher, 16.4%
- COCCNC(=O)C1c2ccccc2C(=O)N(C)C1c1cccs1 (stereo not shown) — lower, -3.27%
- O=C(c1ccc(CNS(=O)(=O)c2ccccc2)cc1)N1CCC2(CC1)OCCO2 — lower, -0.00718%
- COc1cccc(/C=C/C(=O)c2ccncc2)c1 — higher, 4.55%
- CN1CCN(Cc2cccnc2)CC1 — lower, -3.65%
- CCOc1cc(C2C3=C(CCCC3=O)OC3=C2C(=O)CCC3)ccc1OCc1ccc(C(=O)O)cc1 — lower, -2.98%
- NC(=O)CS(=O)(=O)c1nc2ccccc2n1CC(=O)N1CCOCC1 — lower, -2.19%
- Cc1ccc(OCCCCCN2CCNCC2)c(Cl)c1 — lower, -0.473%
- CN(C)CC(=O)N1c2ccccc2CCc2ccc(NC(=O)c3ccc(N)cc3)cc21 — lower, -2.47%
- O=C(O)CCC(C(=O)O)N1C(=O)c2c(Cl)c(Cl)c(Cl)c(Cl)c2C1=O (stereo not shown) — higher, 3.27%
- Nc1ncnc2[nH]c(CO)nc12 — lower, -10.3%
- O=C(O)C1CCN(S(=O)(=O)c2cccc3nsnc23)CC1 — lower, -3.93%
- Cc1ccc(-c2nc3ccccc3c(=O)n2CCCn2ccnc2)cc1 — lower, 0.751%
- COc1ccc(N(CC(=O)N2CCCCC2)S(=O)(=O)c2ccc(C)cc2)cc1OC — higher, 4.49%
- CCn1c(=O)c2sccc2n2c(CCCC(=O)NCc3ccccn3)nnc12 — lower, -6.87%
- Clc1cccc(Cn2ncc3ccccc32)c1 — higher, 3.27%
- COc1ccc(OC)c(N(CC(=O)Nc2ccc(F)cc2)S(C)(=O)=O)c1 — lower, -6.83%
- N#Cc1cc2c(nc1S(=O)Cc1ccc(Cl)cc1)CCCC2 (stereo not shown) — lower, -5.63%
- COc1ccc(Br)cc1CN1CCN(C2CCN(Cc3ccccc3)CC2)CC1 — lower, -1.6%
- O=C(Nc1ccc2oc(-c3ccc(F)cc3)nc2c1)c1ccc(Br)o1 — higher, 11.4%
- CCC(=O)Nc1sc2c(c1C(=O)Nc1cccc3ccccc13)CCC2 — lower, -0.865%
- OC1=C2C(=Nc3nc(O)nc(O)c3C2c2ccc(-c3cccc(C(F)(F)F)c3)o2)CCC1 (stereo not shown) — lower, -0.0678%
- CC1=C(C(=O)N2CCCCC2)C(c2ccc(C(F)(F)F)cc2)C2=C(O)CCCC2=N1 (stereo not shown) — lower, 1.86%
- Cc1cccc(CSc2nc3cccnc3n2CC(=O)NCCc2ccccc2)c1 — higher, 7.01%
- c1ccc2[nH]c(Cc3nc4ccccc4[nH]3)nc2c1 — lower, -8.12%
- Cc1cc(C)nc(SCc2nnc(SCC(=O)NCc3ccccc3)o2)n1 — higher, 2.95%
- CC(C)C(=O)N1c2ccccc2N=C2CC(C)(C)CC(O)=C2C1c1ccc(Cl)cc1 (stereo not shown) — lower, -3.44%
- COc1ccc2[nH]cc(CCN3C(=O)CCC3=O)c2c1 — lower, -1.29%
- COc1ccc(CNC(=O)Cn2nc(C)c3c(C)n(-c4ccc(C)cc4)nc3c2=O)cc1OC — lower, -5.15%
- Cc1ccc(C(=O)N/C(=C\c2ccco2)C(=O)N2CCSCC2)cc1C — lower, -2.78%
- COC(=O)c1cnc2ccc(S(=O)(=O)N3CCCC3)cc2c1O — higher, 2.5%
- Cc1cccc(C#CCN2CCCCC2)c1 — lower, -6.87%
- CCC1=NN2C(=N)/C(=C/c3ccc(OCCOc4ccccc4)c(OC)c3)C(=O)N=C2S1 — higher, 7.73%
- CC(=O)C1=C(C)OC(N)=C(C#N)C1c1cccc(OCc2ccccc2)c1 (stereo not shown) — lower, -0.25%
- COc1ccccc1NC(=O)c1cc(OC)c(C(=O)c2ccccc2)cc1OC — higher, 3.69%
